To fix the notation:
T1: UNK ZnF1-3 (human, UniProt Q9C0B0 31-174)
T1 sequence: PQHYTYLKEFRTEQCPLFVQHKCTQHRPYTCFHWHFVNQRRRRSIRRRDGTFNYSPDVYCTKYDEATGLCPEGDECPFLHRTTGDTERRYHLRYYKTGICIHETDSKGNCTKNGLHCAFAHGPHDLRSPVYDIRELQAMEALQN

B1: chr3:196311055:196311056:+_ENSG00000174013_ENST00000440469|hu_mus|FALSE|FALSE (ssRNA)
RNA: GGGAGUUCUACAGUCCGACGAUCGGCUUUUGGAAGUCCUCGAAAGGCAACCCCCAGGAACUCAUACCCACGCUCAAAAGCUAAAGUCUUAUCCUCCAUGUCCAGGAUGACUCGGAUUCUCUCUCCUAUCUGAUACUUUGGUGCCAACAGAGGAUUGAGCAUCA
B2: chr5:37680062:37680063:+_ENSMUSG00000029121_ENSMUST00000031004|mus_hu|mus_mus_mus_hu_False|1_1 (ssRNA)
RNA: GGGAGUUCUACAGUCCGACGAUCUUUGGGUGUAGCUGGUACCUCGUACACAGGACCGUCAUACAUGCCCCUGGAAACCCCUUGCAAUCCAAAAACCUUAUUCCUGAUUUUGACGCGCUGGUACAGGUGCUCCGGGAAUGGCUUCAACAGAGGAUUGAGCAUCA
B3: chr7:150915252:150915253:-_ENSG00000033050_ENST00000287844|hu_hu|FALSE|FALSE (ssRNA)
RNA: GGGAGUUCUACAGUCCGACGAUCCUUCCCUGCUCCAUUGGGCCCUACCAGAGCCACUCGUGUGUCAAGGUCAAUUCCAAAUUCUAGAUUAUUGUAGAUGCAAGGCCCAUCUUUUGUAUACUUGAAGCUCACAUUUUGCACCAUCAACAGAGGAUUGAGCAUCA
B4: chr14:102036314:102036315:-_ENSMUSG00000075486_ENSMUST00000100339|mus_mus|motif|central (ssRNA)
RNA: GGGAGUUCUACAGUCCGACGAUCCUUGAGAGAUCUGCAGCUGUCAGAGCUCACAGCCAUGCCCAGUUUCCACUGAAAAUCGGUAAGCUGGCCCGUGACCUCCGACUUGGCAUCCAGCACGGGCUCCCUGAACCCAGACUCCUCCAACAGAGGAUUGAGCAUCA
B5: chr1:182620099:182620100:+_ENSMUSG00000058729_ENSMUST00000085803|mus_mus|FALSE|FALSE (ssRNA)
RNA: GGGAGUUCUACAGUCCGACGAUCAACAACAAAGCUUUUAUAAAUUAUGAUAAAUUAAAAUAUUUAUUAUUAUAAUUGAUCUAUAGAACCAUGUCCCACUGUCAGUAUAUGAAACAUACACUUAAGUCCGUGUUUCCCAUCUGUCAACAGAGGAUUGAGCAUCA
B6: chr7:54825262:54825263:-_ENSG00000132432_ENST00000352861|hu_hu|hu_hu_hu_mus_False|1_68 (ssRNA)
RNA: GGGAGUUCUACAGUCCGACGAUCCUGCCGGCUGGGCUCCACAAACUGCAUUACCUGAUCCAUGUUUUACCCAACCGGGAUUGAGAGCGUAGAGACACGUAGCUCAGGAGAGAACCGAGCCCAACGGAACCGGAAGCGGAAUCCCAACAGAGGAUUGAGCAUCA
B7: chr1:63797873:63797874:+_ENSMUSG00000025962_ENSMUST00000128621|mus_mus|FALSE|FALSE (ssRNA)
RNA: GGGAGUUCUACAGUCCGACGAUCAUCCUCUGGGGUGGCAUGAAUUUAAACAGUAAACAGACUUAGGAACACACAGCACUGCUACUCUCUGCAUGUUUGUGGCAGAACUUGCAUCUACAUCAGAAAAUGAAAAUACUUGGGUCCCAACAGAGGAUUGAGCAUCA
B8: chr8:24049560:24049561:+_ENSMUSG00000031540_ENSMUST00000044331|mus_mus|motif|central (ssRNA)
RNA: GGGAGUUCUACAGUCCGACGAUCGCUGUUGACAGAGCGGACUGACUGGCUAGGAUGAGACGGAAUGGAGGAUAUCGGGCGGUUAUGCUCUGAAGCAUGACAGUCUUCAACCAUUGACAUCUGGGGGUCCUCAUCAGUGUGGGUCAACAGAGGAUUGAGCAUCA
B9: chr17:64801638:64801639:+_ENSG00000154229_ENST00000413366|hu_mus|hu_hu_hu_mus_False|1_28 (ssRNA)
RNA: GGGAGUUCUACAGUCCGACGAUCUAUAUAUAUAUAUACAUAUGUACACAUAUAUAGUAAAACCCUAGUUAAACGUGUAAAGUAGCCAUUCAUUUUUAAAAUUACAUCUACAUUUAAAAAUUAAUAUAUCUGAUAGAGUGCCCACAACAGAGGAUUGAGCAUCA
B10: chr12:36742118:36742119:-_ENSMUSG00000020577_ENSMUST00000020896|mus_hu|FALSE|FALSE (ssRNA)
RNA: GGGAGUUCUACAGUCCGACGAUCAGGUGCCACCGAGCUUCAGAGACCACAAGUUUCAAAUAUUUUUCAGCAACGGAAAGAAAAAAACAUGUAGAGAAACAUAGAGUAAAAAUAUAUAAUUCCACUAUCAAUAAGGUACUUUUCCAACAGAGGAUUGAGCAUCA
B11: chr15:35867035:35867036:-_ENSMUSG00000014313_ENSMUST00000014457|mus_mus|motif|central (ssRNA)
RNA: GGGAGUUCUACAGUCCGACGAUCAGAAGACCACGCAUCUGUGGUUUGGGCAACAGCGCACCGGAACUCAUGGUAGCCAAUGUCCUCGGCACCAACGUCCUUCCCGGUUCUCGGAGAAACGGAGAGCCUUCCAGCAGCACGCAUCAACAGAGGAUUGAGCAUCA
B12: chr6:41757443:41757444:+_ENSG00000214736_ENST00000398881|hu_mus|hu_hu_hu_mus_False|8_68 (ssRNA)
RNA: GGGAGUUCUACAGUCCGACGAUCGAACCGUGCAGAGGCAACAUCUCAGCCGACACUGGGGGAUGGGGGAACAAAAGGGGGGGGUUCAGGCAAGGAGAGGGAGUCAACUUCAGCUGCCACUCAGGUAGCUGCCAUCAGUCACAGCAACAGAGGAUUGAGCAUCA
B13: chr16:13835293:13835294:+_ENSMUSG00000022681_ENSMUST00000136618|mus_mus|FALSE|FALSE (ssRNA)
RNA: GGGAGUUCUACAGUCCGACGAUCAGGAAAGAGUAUAUUCUCUGGAGAUGGGAAUUUUUUUAAAAACAUCAAGGUAGAUCUAAUAUGUUCAACAAAGUGGGGGGGCUCGGCCAGAGGAGACGUGGAAAGGCUCUCUAGGAUUUGCAACAGAGGAUUGAGCAUCA
B14: 142103422_142116185_2502_3pUTR_ENSG00000114127_ENST00000264951|human|control|control (ssRNA)
RNA: GGGAGUUCUACAGUCCGACGAUCCGAACUUCACCAUUUUGAUUUAUUUGAUAUUUACGACCUGUGAGUAACUGAGCAUACACAACUGCAGAUGUUUCAUUUAUUAUUAUUCCUUUUCUUCUCAGGUAGUGUUCUGAAAUUCCUCAACAGAGGAUUGAGCAUCA
B15: chr17:65740002:65740003:+_ENSG00000130935_ENST00000581375|hu_hu|hu_hu_hu_mus_False|1_28 (ssRNA)
RNA: GGGAGUUCUACAGUCCGACGAUCAACAAAUCUUUCUUCCCUGGACGAACAGGAAGAUUCAUAUUAAAAAAAAUAUAUAUCCAUCAAGUUAGGUGUGGUGGCCACACAGAGCUCCAGAGCACUUUGGGAGGUGGAUCCUCUAUUCAACAGAGGAUUGAGCAUCA
B16: chr5:128448638:128448639:+_ENSG00000066583_ENST00000173527|hu_mus|hu_hu_hu_mus_False|8_68 (ssRNA)
RNA: GGGAGUUCUACAGUCCGACGAUCGGCACUCGCCUUAAUUAGGUUCUGAAUUUCCUUGAACUUCGGGUGGUCCUUAUCAGCCACCAGCUGUAGGAGGACAGCCUCACUAGUGGUCACGAUGAUCCCAGUUCGAGCGAGACGCUCCAACAGAGGAUUGAGCAUCA
B17: chr14:103803487:103803488:+_ENSG00000100664_ENST00000558506|hu_mus|hu_hu_hu_mus_True|28_78 (ssRNA)
RNA: GGGAGUUCUACAGUCCGACGAUCGAGUUUAUGAUGUGUGUCAAGCAUGCCUCGGUAGCCACAGGCUUUACAAGAAUUACCUAUUGUUUGCUUCUUUGGAUUGACAUGCAAAUCUGUUUCAGGAUUCUCACACUCAGGACAGAGCAACAGAGGAUUGAGCAUCA
B18: 59406787_59410403_2143_CDS_ENSG00000166889_ENST00000300146|human|control|control (ssRNA)
RNA: GGGAGUUCUACAGUCCGACGAUCUGUAGCAGGGUCUGAACUCUGUAGGUCUUCACCACGGCUCAGGAGGAUGAGGAGCAGUGACAGGCCAAACUUGUUCUGGAGCACAGCAGUGAGGUGAGGAUUGGAGAGUGCUGGUGUAGCCAACAGAGGAUUGAGCAUCA
B19: chr8:34730120:34730121:+_ENSMUSG00000009630_ENSMUST00000009774|mus_mus|FALSE|FALSE (ssRNA)
RNA: GGGAGUUCUACAGUCCGACGAUCACAGUAAUUUAGUUUAGGAAACUUUAAAGGAAAUCUCUUUAAUGUUAUGACAACAUACUCCCAAGAAUCUCUUCUUCAGUUAGUCAUACAUUUCAAUAAAAUAAAGGAUUAUGAAUUGAACAACAGAGGAUUGAGCAUCA
B20: chr2:155973683:155973684:-_ENSMUSG00000027620_ENSMUST00000109587|mus_hu|FALSE|FALSE (ssRNA)
RNA: GGGAGUUCUACAGUCCGACGAUCCAUGAACAUUUUAAAAGGCAGAACAAGAGAACAGUUUUGUAUACAGUGGGAUUUACUAUUUAGGGAGAAUGAGCACACUGCAUUCCUGUUAACAUUUUUAUUUUUUCAAGGUAACAGGAACAACAGAGGAUUGAGCAUCA
B21: chr2:168997265:168997266:-_ENSG00000198648_ENST00000355999|hu_mus|FALSE|FALSE (ssRNA)
RNA: GGGAGUUCUACAGUCCGACGAUCUUUAUUCCGUGUAACAUCACCCCCUGUGGCUAAGAAUGCGCUUACUCCAAAAUCUGCUAUUUGUACUGAGCCAUCCUCACCCAGAAGAAUAUUUCCAGCUUUCAAAUCCCUAUGGAUCUGCAACAGAGGAUUGAGCAUCA
B22: chr5:143849297:143849298:-_ENSMUSG00000045078_ENSMUST00000053498|mus_hu|motif|central (ssRNA)
RNA: GGGAGUUCUACAGUCCGACGAUCUACAUUCAGAUCAUAAUAAUUCUUAAAAUGAAUUAUUUCCUCAAUAAACCCAUUUGCGGCAUCUGGAAAUCUUGCUUCCGUUUCUUUCACUAGUAGUUCAACGAGCUCUUGAUCUACCUCCAACAGAGGAUUGAGCAUCA

The list shows a part of the results.

The experiment deals with T1, UNK ZnF1-3. Description: nsRBNS (natural sequence RNA bind-n-seq); RBNS binding buffer (assumed for nsRBNS): 25 mM Tris pH 7.5, 150 mM KCl, 3 mM MgCl2, 0.01% Triton X-100, 500 ug/ml BSA, 20 U/ml SUPERase-In, 4 C; UNK is unkempt and MSI1 is Musashi-1; names of the RNAs are library labels; protein concentration not given here; high values mean tight binding.
With B1, the binding signal stood at 0.98 enrichment R.

B2 gave a binding signal of 0.731 enrichment R.

In turn, B3 registered a binding signal of 1.07 enrichment R.

In turn, B4 had a binding signal of 0.489 enrichment R.

The molecule B5 gave a binding signal of 0.913 enrichment R.

B6 had a binding signal of 0.504 enrichment R.

Turning to B7, the binding signal is 1.27 enrichment R.

In the case of B8, the binding signal was determined as 1.13 enrichment R.

For the molecule B9, the binding signal was found to be 1.65 enrichment R.

Regarding B10, the binding signal was 1.98 enrichment R.

B11 gave a binding signal of 0.913 enrichment R.

As for B12, the binding signal worked out at 2.9 enrichment R.

B13 gave a binding signal of 2.27 enrichment R.

For B14, the binding signal came out at 1.25 enrichment R.

In the case of B15, the binding signal worked out at 1.93 enrichment R.

B16: the binding signal was 0.631 enrichment R.

B17 displayed a binding signal of 1.17 enrichment R.

Molecule B18 gave a binding signal of 1.49 enrichment R.

B19 showed a binding signal of 0.783 enrichment R.

With B20, the binding signal was determined as 1.22 enrichment R.

As to B21, the binding signal is 0.945 enrichment R.

For the molecule B22, the binding signal was 0.696 enrichment R.

The values are drawn from article PMC12136788.
